Results reported in paper PMC4336329 (PLoS ONE, 2015).
The campaign covered roughly 310,000 compounds. About 14,000 (4.5%) showed an effect of 50% or more. Effects have a minus sign here. This is one part of the list.

Molecular target: human ether-à-go-go-related gene (hERG) potassium channel (human, UniProt Q12809)
Assay: primary screen, population patch clamp on CHO cells stably expressing hERG
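Also: peak tail current of the secondary pulse compared with the same well before compound.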

Chain of human ether-à-go-go-related gene (hERG) potassium channel (Q12809 whole entry, looked up): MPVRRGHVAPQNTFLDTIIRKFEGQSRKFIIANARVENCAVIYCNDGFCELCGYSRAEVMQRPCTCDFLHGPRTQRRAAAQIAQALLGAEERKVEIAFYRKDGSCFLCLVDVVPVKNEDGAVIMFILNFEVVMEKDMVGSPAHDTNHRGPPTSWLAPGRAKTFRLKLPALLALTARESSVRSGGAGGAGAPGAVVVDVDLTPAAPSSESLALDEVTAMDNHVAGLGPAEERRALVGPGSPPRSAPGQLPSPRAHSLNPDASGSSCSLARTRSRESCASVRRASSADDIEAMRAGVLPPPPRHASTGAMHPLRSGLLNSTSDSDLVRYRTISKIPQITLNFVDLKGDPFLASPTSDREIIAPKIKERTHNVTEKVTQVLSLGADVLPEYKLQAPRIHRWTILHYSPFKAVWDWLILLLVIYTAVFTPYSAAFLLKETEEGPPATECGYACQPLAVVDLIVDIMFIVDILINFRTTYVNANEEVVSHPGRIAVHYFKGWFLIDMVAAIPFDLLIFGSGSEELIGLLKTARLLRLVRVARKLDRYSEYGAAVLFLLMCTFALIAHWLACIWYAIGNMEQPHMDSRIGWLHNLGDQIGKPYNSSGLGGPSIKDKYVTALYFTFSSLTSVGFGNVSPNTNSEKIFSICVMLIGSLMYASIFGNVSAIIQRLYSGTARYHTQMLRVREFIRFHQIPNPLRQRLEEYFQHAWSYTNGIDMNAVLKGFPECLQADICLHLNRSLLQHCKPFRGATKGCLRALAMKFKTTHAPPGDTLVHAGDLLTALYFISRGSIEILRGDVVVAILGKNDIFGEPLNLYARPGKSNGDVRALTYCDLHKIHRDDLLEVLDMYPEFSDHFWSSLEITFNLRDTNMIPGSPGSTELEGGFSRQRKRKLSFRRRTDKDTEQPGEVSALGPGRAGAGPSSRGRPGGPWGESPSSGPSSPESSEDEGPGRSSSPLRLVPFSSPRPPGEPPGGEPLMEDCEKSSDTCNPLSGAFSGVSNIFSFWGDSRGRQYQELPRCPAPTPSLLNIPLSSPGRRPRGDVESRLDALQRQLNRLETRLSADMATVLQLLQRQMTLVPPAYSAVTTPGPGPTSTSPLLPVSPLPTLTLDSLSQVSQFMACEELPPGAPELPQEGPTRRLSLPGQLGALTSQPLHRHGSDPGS

Compound	hERG current change (%, negative = inhibition) at 10uM
O=C1C2C(C(=O)N1c1ccc3c(c1)OCO3)C1C=CC2C12CC2 (stereo not drawn)	-3.37%
Cl.O=C(c1ccco1)N(CCCN1CCOCC1)c1nc(-c2ccc(F)cc2)cs1	-29.4%
COc1ccc(-c2cnc3c(-c4ccc(F)cc4)cnn3c2N)cc1	23%
O=C(c1cccs1)N1CCN(c2ncc(Br)cn2)CC1	-15%
CCCN1Cc2cccc(C(=O)NCc3ccc4c(c3)OCO4)c2C1=O	3.73%
N#CCCCSc1nnc(CSc2nc3ccccc3s2)n1-c1ccccc1	-48.5%
CCOc1ccc(S(=O)(=O)N(C)c2ccc(OCC(=O)Nc3nccs3)cc2)cc1	10.1%
CCOC(=O)c1c(S(=O)(=O)NCCc2ccccc2)c(C)n(C)c1C	-20.9%
Cn1c(/C=C/c2ccc(Br)cc2)nc2ccccc2c1=O	14.2%
CCOC(=O)CCNCc1ccc(F)cc1.Cl	-0.51%
Fc1ccc(N2CCN(c3ncnc4c3nnn4Cc3ccccc3Cl)CC2)cc1	16.8%
Cc1ccccc1OC1CCN(C(=O)c2cc(COc3ccccc3)on2)CC1	-0.372%
CCOCCOC(=O)c1ccc(NC(=O)C2COc3ccccc3O2)cc1 (stereo not drawn)	-33.1%
O=C(CCCSc1nc2sc3c(c2c(=O)[nH]1)CCC3)NCCO	14.9%
O=C(Nc1ccc(O)cc1)c1ccc(NC(=O)C2CCCO2)cc1 (stereo not drawn)	18.9%
Cc1ccc(C)c(NC(=O)CCN2CCN(CCO)CC2)c1.Cl	4.08%
CCN(CC)c1ccc(CN(C)CCc2ccc(OC)c(OC)c2)cc1	-66.1%
COc1ccc(-c2cnn3c(N)c(S(=O)(=O)c4ccccc4)cnc23)cc1	6.68%
COc1ccc(C2CC(=O)C(CS(=O)(=O)c3ccccc3)C(=O)C2)cc1 (stereo not drawn)	39%
COc1ccc(CC(=O)N2CCN(S(=O)(=O)c3cc(Cl)ccc3Cl)CC2)cc1	-23.7%
CCc1ccc2oc(-c3ccc(OC)cc3)cc(=[NH+]c3cccc(C(=O)O)c3)c2c1.F[B-](F)(F)F	5%
CCNS(=O)(=O)c1ccc(NC(=O)c2c(-c3ccccc3)noc2C)cc1	7.28%

Compound	hERG current change (%, negative = inhibition) at 10uM
Cc1ccccc1-c1cc(C(=O)NCc2ccco2)n(CC2CC(c3cccnc3)=NO2)n1 (stereo not drawn)	-15.6%
CCCCCCc1ccc(N2C[C@H](Cc3ccccc3)[C@@H](CC(=O)Nc3ccccc3)C2=O)cc1	4.26%
O=C(c1cccn2c(=O)c3cc(Br)ccc3nc12)N1CCN(c2ccccn2)CC1	-33.6%
CCOC(=O)N1CCN(c2ccc(S(=O)(=O)N3CCOCC3)cc2[N+](=O)[O-])CC1	-26.5%
COc1ccc(CN(C(=O)CNC(=O)c2ccco2)C(C(=O)NC2CCCC2)c2ccco2)cc1 (stereo not drawn)	-15.9%
Brc1ccc(-c2csc(/N=C/N3CCOCC3)n2)cc1	-39.6%
CCc1ccc(NC(=O)CSc2nnnn2-c2cccnc2)cc1	-15.4%
Cc1ccc(NC(=O)CN(C)C(C)C(=O)Nc2ccc(S(=O)(=O)N3CCCC3)cc2)cc1 (stereo not drawn)	-7.52%
CN(C)/C=C(/C(=O)c1ccc(Cl)cc1)S(C)(=O)=O	17.3%
CC(C)CC(CO)N1CCN(C(=O)c2cccc(Cl)c2)CCC1=O (stereo not drawn)	7.35%
COc1ccc(C(=O)C2CCCN(C(=O)c3cccnc3SC)C2)c(C)c1 (stereo not drawn)	10.6%
Cc1cccc(NC(=O)CN2C(=O)N/C(=C\c3ccc(N4CCOCC4)cc3)C2=O)c1	9.92%
N#Cc1cc(N2CCCCC2)c([N+](=O)[O-])cc1C#N	10.2%
Nc1ncc2c(n1)-c1cc(Cl)ccc1SC2	-32.2%
c1ccc(CN2CCN(Cc3ccc4ccccc4c3)CC2)cc1	5.24%
CNCCOc1ccccc1-c1ccccc1.O=C(O)C(=O)O	-5.68%
O=[N+]([O-])c1ccccc1Oc1cnc2ccccc2n1	-9.02%
CC(C)CCNC(=O)C(c1ccc(O)cc1)N(C(=O)C1COc2ccccc2O1)c1cccc(O)c1 (stereo not drawn)	3.37%
Cc1ccc(S(=O)(=O)N(Cc2ccccc2)c2ccccc2C(=O)N2CCCCC2)cc1	-28.6%
O=C(Nc1ccccc1)c1nc2ccccc2s1	-9.08%
COC(=O)Nc1ccc2c(c1)N(C(=O)CCN(C)C)c1ccccc1CC2.Cl	15%
O=C(CN1C(=O)/C(=C/c2ccc(F)cc2)SC1=S)NC1C=CS(=O)(=O)C1 (stereo not drawn)	42.7%

Compound	hERG current change (%, negative = inhibition) at 10uM
COc1ccc(OC)c(NC(=O)C2CCCN(S(=O)(=O)c3cccc4nsnc34)C2)c1 (stereo not drawn)	0.373%
CN(c1ccccc1)S(=O)(=O)c1cccc(Cl)c1Cl	-0.0959%
CC(Oc1ccccc1)C(=O)N=C1SC2CS(=O)(=O)CC2N1CCc1ccccc1 (stereo not drawn)	-21.6%
CC1CCCCN1C(=O)Cn1c(=O)n(-c2ccc(F)cc2)c(=O)c2sccc21 (stereo not drawn)	-0.788%
Cc1cccc(OC(=O)c2sc(Cl)nc2C)c1	-12.7%
CCS(=O)(=O)NCC(c1cccnc1)N1CCN(c2ccccc2OC)CC1 (stereo not drawn)	0.421%
N=C1C(c2nc3ccccc3s2)=C(O)CN1C1CCC(O)CC1 (stereo not drawn)	-4.86%
Cc1cccc(NC2=NC(=S)N(c3cccc(C(=O)O)c3)C23CCCCC3)c1	17.2%
Cc1cc(C)cc(-n2c(SCC(=O)NCc3ccco3)nc3ccccc3c2=O)c1	3.69%
COc1ccc(OC)c(S(=O)(=O)Nc2ccccc2C)c1	11.9%
CN(CC(=O)NC1CC(C)(C)NC(C)(C)C1)S(=O)(=O)c1ccc(Br)cc1	-2.22%
Cc1ccc(Cc2cnc(NC(=O)/C(C#N)=C/c3ccc(-c4ccc([N+](=O)[O-])cc4)o3)s2)cc1	4.54%
O=S(=O)(Cc1cc(Cl)nc(-c2cccnc2)n1)c1ccccc1	-14.4%
COc1ccc(/C=C(\C#N)c2n[nH]c(Cn3cncn3)n2)cc1	8.43%
COCCCn1c(SCC(=O)NC(C)(C)C)nnc1-c1cccs1	7.25%
CCOC(=O)c1c(C)[nH]c(C)c1C(=O)COC(=O)C1CCCN1S(=O)(=O)c1ccccc1F (stereo not drawn)	-2.63%
CCN(CC)CCCC(C)N=C(c1ccccc1)c1c(O)n(C)c(=O)n(C)c1=O (stereo not drawn)	5.76%
CCN1CCN(c2c(Cl)cccc2NC(=O)c2cc3ccccc3o2)CC1	-23.4%
O=C(COc1ccc(Cl)cc1Br)Nc1ccncc1	-5.88%
O=C(NC(=S)N1CCN(c2ccc(F)cc2)CC1)c1cccs1	-35.1%
Cc1[nH]n(-c2ccccc2)c(=O)c1C=NCc1ccncc1	-58.1%
CSc1ncccc1C(=O)OCC(=O)N(C)C1CCS(=O)(=O)C1 (stereo not drawn)	13.7%

Compound	hERG current change (%, negative = inhibition) at 10uM
COC(=O)c1ccccc1NC(=O)CN(C)S(=O)(=O)c1ccc(OC)cc1	1.45%
O=CN1N=C(c2ccccc2)CC1c1ccc(Cl)cc1 (stereo not drawn)	-14.3%
Cc1cc(C)nc(NS(=O)(=O)c2ccc(NC(=O)CSc3ncn[nH]3)cc2)n1	8.34%
Cc1cc(C)n(CCC(=O)N/N=C/c2ccccc2O)n1	5.57%
S=c1[nH]nc(CSc2nc3ccccc3s2)o1	12.1%
CN1C(=O)NC(c2ccccc2[N+](=O)[O-])C2=C1CCCC2=O (stereo not drawn)	10.1%
COc1ccccc1OCCC(=O)OCC(=O)Nc1cc(S(=O)(=O)N2CCOCC2)ccc1Cl	-22.5%
Brc1ccccc1/C=N/Nc1nc2ccccc2o1	6.15%
O=C(NCCc1ccc(Cl)cc1)c1ccc2ccccc2n1	-10.4%
CN(CC(=O)Nc1cccc(F)c1)C(=O)C1CC(=O)N(Cc2ccccc2)C1 (stereo not drawn)	-1.85%
CCOC(=O)c1cc(-c2cccc([N+](=O)[O-])c2)on1	16.3%
COC(=O)c1ccc(CNC(=O)c2sccc2-c2ccccc2)cc1	2.77%
COc1ccc(NC(=O)N2CCN(S(C)(=O)=O)CC2)cc1OC	-0.713%
Cc1cc(=O)oc(C)c1C(=O)Nc1cccc2nonc12	1.53%
O=C(/C=N/O)NCC1CCNCC1	23.1%
O=C(C1CCN(S(=O)(=O)c2ccccc2)CC1)N1CCCCC1	5.85%
CC1=C(C(=O)Nc2cccc(C)c2C)C(c2cccs2)NC(=S)N1 (stereo not drawn)	-7.83%
CN(CC(=O)Nc1ccc(Cl)c(C(F)(F)F)c1)C(=O)CCC(=O)c1ccccc1	-12.6%
O=C(/C=C/c1ccc([N+](=O)[O-])cc1)Nc1cccc(C(=O)Nc2ccccc2C(=O)O)c1	24.2%
COc1ccc(OC)c(NC(=O)C2CCCN(S(C)(=O)=O)C2)c1 (stereo not drawn)	1.83%
CSc1ccccc1C(=O)NC1CCCCC1	-29.2%
